Experimental data as given in PubChem BioAssay AID588501 (NMMLSC, 2011).
Values joined by “and” are separate entries in the source; they are usually repeats but may differ in a detail not shown here. Equal entries are not always repeated. Screen size: about 360,000 compounds; about 420 (0.12%) were called active. The inconclusive results got no clear call from the source; some entries with a clear call stand among them for comparison. No stated cut-off is given here; in the data, active means inhibition above about 30%; inconclusive means no clear call, values can overlap the other calls; inactive means below that.

The compounds below were run against Lethal factor (Bacillus anthracis) (UniProt P15917) (assay: anthrax lethal factor cleavage blockers – biochemical, multiplex microsphere, MLPCN library, primary screen (AID 588501; further: plate controls were buffer without enzyme for full effect and enzyme alone for no effect)). Conditions: multiplex microsphere protease cleavage assay, LF; at 10 µM; stronger effect = higher value.
With `Cc1ccccc1-n1nc2c(c1NC(=O)/C=C\c1ccc3c(c1)OCO3)CSC2` the inhibition was inactive: -1.3%. `CCCCOc1cccc(C2/C(=C(/O)c3ccc4c(c3)CC(C)O4)C(=O)C(=O)N2CCN2CCOCC2)c1` (stereo not drawn) was tested, and the inhibition was inconclusive: -10.3%. For `COc1ccc(/C=C2\C(=O)NCC(=O)N2C)cc1`, the inhibition was active: 34.2%. For `Oc1c(C=C2N=c3ccccc3=N2)sc(=S)n1C1CCCCC1`, the inhibition was active: 40.2% and active: 33%. For `COc1ccccc1N1CCN(C(=O)c2ccc(CS(=O)(=O)c3ccccc3OC)o2)CC1`, the inhibition was inactive: -0.9%. For `CCCCP(=O)(O)c1ccccc1`, the inhibition was inconclusive: -27.8%. In the case of `O=C1/C(=C/c2ccccn2)SC(=S)N1Cc1ccccc1`, the inhibition is reported as inconclusive: 10%. For `Cc1cccc(NC(=O)[C@H](Cc2c[nH]c3ccccc23)NC(=O)[C@@H]2Cc3ccccc3CN2)c1`, the inhibition was inactive: -7.5%. `O=[N+]([O-])c1ccc(C2=NN(c3ccccc3)C(c3ccco3)C2)cc1` (stereo not drawn) was tested, and the inhibition was active: 31%. With `Cc1cccc2c1NC(C)CC2C` (stereo not drawn) the inhibition was active: 40.2%. In the case of `O=C(CC(=O)Nc1ccccc1F)Nc1ccccc1F`, the inhibition is reported as active: 41.5%. For `COc1ccc(OC)c(-c2nn(-c3ccccc3)cc2C(=O)NCC(c2cccs2)N2CCOCC2)c1` (stereo not drawn), the inhibition was inconclusive: 3.7%. With `COC(=O)[C@]1(Cc2ccccc2)N[C@H](c2ccc(-c3ccccc3)cc2)[C@@H]2C(=O)N(C)C(=O)[C@@H]21` the inhibition was inactive: -1.1%. In the case of `CSc1ccccc1NC(=O)CN(C)C(C)C(=O)NC(=O)NC1CCCCC1` (stereo not drawn), the inhibition is reported as inconclusive: -1.5%. For `CC1CCN(C(=O)COC(=O)c2cc([N+](=O)[O-])ccc2N2CCOCC2)CC1`, the inhibition was inconclusive: 2.3%. For `CN(C(=O)c1cccc(NC(=O)c2ccco2)c1)c1ccccc1`, the inhibition was inactive: 9.4%. In the case of `NC(=O)CC(NC(=O)Cc1cccc2ccccc12)c1ccc(NC2CC3CCC2C3)c([N+](=O)[O-])c1` (stereo not drawn), the inhibition is reported as inactive: -4.8%. In the case of `CC(=O)Nc1ccc(Oc2ccc3c(c2)C(=O)NC3=O)cc1`, the inhibition is reported as active: 30.3%. With `Cc1ccc(S(=O)(=O)Cc2ccc(C(=O)N3CCC4(CC3)OCCO4)o2)cc1` the inhibition was inactive: -2.6%. `COc1ccc(-c2csc(NC(=O)CN3C(=O)NC4(CCCC4)C3=O)n2)c(OC)c1` was tested, and the inhibition was inconclusive: -2.5%. With `CCCCN(C)C1=CC2=CC(=C(C#N)C#N)CCC2CC1` (stereo not drawn) the inhibition was active: 38.5%. With `O=C(CCc1ccccc1)Nc1cccnc1Cl` the inhibition was inconclusive: 7.9%. In the case of `N#Cc1ccc(-c2cccs2)nc1SCc1cccnc1`, the inhibition is reported as inconclusive: 18.7%. `O=C(NCc1ccccc1F)C1CCCN(C(=O)NC2CCCCC2)C1` (stereo not drawn) was tested, and the inhibition was inconclusive: -9.6%. `Clc1ccc(CO/N=C/c2cccs2)cc1` was tested, and the inhibition was inconclusive: 10%. `O=C(OCc1cccc(C(F)(F)F)c1)c1cc(S(=O)(=O)N2CCOCC2)ccc1F` was tested, and the inhibition was inconclusive: 28.6%. `Cc1cccc(NC(=O)CNC(=O)CN2C(=O)NC(C)(CCC(C)C)C2=O)c1C` (stereo not drawn) was tested, and the inhibition was inconclusive: -4%. With `CC1=C(/C=C/C(C)=C/C=C/C(C)=C\C(=O)O)C(C)(C)CCC1` the inhibition was inactive: 0.7%. For `CCOC(=O)c1cnc(-n2nc(C)cc2C)nc1NC`, the inhibition was inconclusive: -31.7%. With `COc1ccc(NC(=O)Nc2ccccc2OC)cc1` the inhibition was inactive: -0.9%. In the case of `Cc1cc(C)c(-n2c(O)c(/C=N/NC(=O)c3ccncc3)c(=O)[nH]c2=O)c(C)c1`, the inhibition is reported as inconclusive: -15.9%. For `Cc1cccc(-n2c(O)cnc2Nc2nc(C)cc(C)n2)c1`, the inhibition was inactive: -7.9%. In the case of `Cn1c(=O)[nH]c(=O)c2[nH]c(CN3CCN(C(=O)c4ccco4)CC3)nc21`, the inhibition is reported as inconclusive: -2.3%. `CCn1cc(C(=O)OCC(=O)Nc2cccc(S(=O)(=O)N3CCOCC3)c2)c(=O)c2ccc(C)nc21` was tested, and the inhibition was inactive: 0%. `CCOc1ccc(NC(=O)C2CCCN(S(=O)(=O)c3ccc4c(c3)CCCN4C(C)=O)C2)cc1` (stereo not drawn) was tested, and the inhibition was inactive: 0.9%. With `CCN(CC)c1ccc(C(=C2C=CC(=[N+](CC)CC)C=C2)c2ccc(N(CC)CC)cc2)cc1` the inhibition was inconclusive: -9.8%. With `Cn1c(=O)c2c(ncn2CC(=O)OCc2ccccc2)n(C)c1=O` the inhibition was inactive: 0.2%. For `Cc1ccc(C(=O)Nn2c(O)c(C=C3N=c4ccccc4=N3)sc2=S)cc1`, the inhibition was active: 69%. `CC(=O)Nc1ccc(OC(=O)N(C)C)cc1` was tested, and the inhibition was inconclusive: -17%. With `Nn1c(SCC(=O)Nc2ccccc2F)nnc1-c1cccs1` the inhibition was inconclusive: -3.5%. With `CCN(CC)CCn1c2c(c(SCC(=O)Nc3ccc4c(c3)OCCO4)nc1=O)CCC2` the inhibition was inconclusive: 1.5%. In the case of `CC(=O)N1CCN(c2ccc(NC(=O)c3ccco3)cc2Cl)CC1`, the inhibition is reported as inconclusive: 3.6%. For `COc1ccc(Br)cc1/C=N/N1CCN(Cc2ccccc2)CC1`, the inhibition was inconclusive: 24.7%. With `O=C(c1ccc2c3n(nc2c1)-c1ccc(Cl)cc1CO3)N1CCOCC1` the inhibition was inactive: -1.8%. For `Cc1ccc(-n2cnc3cc(NCc4cccs4)ccc32)cc1`, the inhibition was inconclusive: -21.4%. With `CCOC(=O)c1sc(NC(=O)CSc2nc(C)cc(-c3ccccc3)n2)c(C#N)c1C` the inhibition was inactive: -6.6%. In the case of `CCOc1ccc(CCNC(=O)C2CC(=O)N(c3ccc4c(c3)OCCO4)C2)cc1OCC` (stereo not drawn), the inhibition is reported as inconclusive: -0.1%. For `CCN(C)C1CN(Cc2cn(Cc3ccc(C(F)(F)F)cc3)nn2)S(=O)(=O)C1` (stereo not drawn), the inhibition was inactive: 3.5%. `CCN(CC(=O)Nc1ccc(Br)cc1)CC(=O)Nc1cc(C)on1` was tested, and the inhibition was inconclusive: 4.1%. In the case of `O=S(Cc1ccc(Cl)cc1)CC(O)(c1ccccc1)c1ccccc1` (stereo not drawn), the inhibition is reported as inactive: 10.7%. With `COCc1ccc(C(=O)N2CCCC(N3CCN(c4cccc(Cl)c4)CC3)C2)s1` (stereo not drawn) the inhibition was inactive: -2.1%. `CCN(CC)C(=O)c1ccc2c(c1)C1C(Cl)C(Sc3ccccc3[N+](=O)[O-])CC1C(C(=O)O)N2` (stereo not drawn) was tested, and the inhibition was inconclusive: -8.5%. For `COc1cccc(-c2cc(C(=O)Nc3cccnc3Cl)no2)c1`, the inhibition was inactive: 0.2%. With `CSc1sc(C(=O)OC(C)C)c2c1C(=O)CC(C)(C)C2` the inhibition was inconclusive: -8.8%. In the case of `CC(C)(C)c1ccc(C(=O)NCC(=O)OCCN2C(=O)c3ccccc3C2=O)cc1`, the inhibition is reported as inconclusive: -32%. For `COc1ccc(CN2CCN(CC3CC3)CC2CCO)c(C)c1C` (stereo not drawn), the inhibition was active: 43.2%. For `COc1ccc(S(=O)(=O)NC(C)C(=O)N2CCCC2)cc1Cl` (stereo not drawn), the inhibition was active: 30.9%. For `CCOc1ccccc1OCCCC(=O)N(CC)CC(=O)Nc1c(F)cccc1F`, the inhibition was inactive: -1.5%. `O=C(NCc1ccc(F)cc1)c1cccc2c1C(=O)c1ccc(N3CCC(Cc4ccccc4)CC3)cc1S2(=O)=O` was tested, and the inhibition was active: 33.1%. `O=C1CN(C(=O)c2ccc(Cl)c([N+](=O)[O-])c2)c2ccccc2N1` was tested, and the inhibition was active: 32.1%. With `O=C(O)CCCCc1nc2ccccc2s1` the inhibition was inconclusive: -41%. `Cn1ccnc1Sc1nc(Nc2cccc(Cl)c2)nc(N2CCOCC2)n1` was tested, and the inhibition was inactive: -3.8%. With `CCOC(=O)C1CCN(C(=O)c2cc(S(=O)(=O)N3CCOCC3)ccc2C)CC1` the inhibition was inconclusive: 0.4%. `COc1ccc(Br)cc1CNCCc1cccc(Cl)c1` was tested, and the inhibition was active: 43.6%. In the case of `CCOC(=O)N1CCN(S(=O)(=O)c2ccc(C(=O)Nc3sc4c(c3C(N)=O)CCN(CC)C4)cc2)CC1`, the inhibition is reported as inconclusive: -1.5%. With `N#CC/C(N)=N/Nc1nc2ccccc2nc1Cc1ccccc1` the inhibition was active: 30.9%. For `CC1CC(C)(C)CC2(C1)NC(=O)N(CC(=O)Nc1ccc(N3CCCCC3)cc1)C2=O` (stereo not drawn), the inhibition was inactive: -1.9%. In the case of `Cc1ccc(N2C(=O)[C@@H]3C(c4cccnc4)=NO[C@@H]3C2=O)cc1`, the inhibition is reported as inconclusive: -17%. `CC(OC(=O)Cc1ccc(F)cc1)C(=O)NCc1ccc2c(c1)OCO2` (stereo not drawn) was tested, and the inhibition was inactive: 3.7%. `Cn1c(=O)c2c(nc(NCC3CCCO3)n2Cc2cccc(Br)c2)n(C)c1=O` (stereo not drawn) was tested, and the inhibition was inconclusive: -21%. In the case of `CC1CCN(S(=O)(=O)c2ccc3c(c2)CCN3C(=O)C2CCC2)CC1`, the inhibition is reported as inconclusive: -6.1%. For `COCCn1ccc2c(OCC(=O)NCCc3ccc(OC)c(OC)c3)cccc2c1=O`, the inhibition was inconclusive: -6.5%. `COc1ccc(N(CCOc2ccccc2)S(=O)(=O)c2ccccc2)cc1` was tested, and the inhibition was inconclusive: 1.9%. `Cc1ccc(-c2nc3ccccc3c(=O)n2CCN2CCOCC2)cc1` was tested, and the inhibition was inconclusive: -57.5%. In the case of `NC(=O)c1ccc(NC(=O)COc2cccc3c2CCNC3=O)cc1`, the inhibition is reported as inconclusive: -4.4%. In the case of `CCc1nnc(NC(=O)CCC(=O)NC2CCCc3ccccc32)s1` (stereo not drawn), the inhibition is reported as inconclusive: 0.5%. `Cc1ccc(S(=O)(=O)N(C)C)cc1NC(=O)C1CCN(C(=O)Nc2ccccc2)CC1` was tested, and the inhibition was inconclusive: 0%. In the case of `Cc1nn(Cc2ccccc2)c(Cl)c1/C=C/C(=O)OC(C)C(=O)N1CCCC1` (stereo not drawn), the inhibition is reported as inactive: -4%. For `O=C1N=C(N2CCC(Cc3ccccc3)CC2)S/C1=C/c1cn[nH]c1-c1ccccc1`, the inhibition was inconclusive: 32.6%. In the case of `Cc1ccc(S(=O)(=O)Nc2cc(-c3ccc(Cl)cc3)nn2C)cc1`, the inhibition is reported as inconclusive: -17.7%. With `O=C(NCCCN1CCCC1=O)C(=O)NCC1OCCN1S(=O)(=O)c1ccc(Cl)cc1` (stereo not drawn) the inhibition was inactive: -3.5%. With `Cc1ncc(CO)c(/C=N/NC(=O)c2ccoc2C)c1O` the inhibition was inconclusive: 1%. For `CS(=O)(=O)c1ccc(NC(=O)C2CC(=O)N(c3ccc4c(c3)OCCO4)C2)cc1` (stereo not drawn), the inhibition was inconclusive: -2.3%. `Cc1ccccc1Cn1ccc(NC(=O)c2nn(C)cc2[N+](=O)[O-])n1` was tested, and the inhibition was inactive: -1.3%. With `COc1ccc(CCNC(=O)NC2CCCCC2)cc1OC` the inhibition was inconclusive: -1.6%. In the case of `COc1ccc(C2=NOC3(CC(=O)N(c4ccc5ccccc5c4)C3=O)C2)c(OC)c1` (stereo not drawn), the inhibition is reported as inactive: -2.2%. For `O=C(NCCc1ccccc1)C1c2ccccc2C(=O)N1C1CC1` (stereo not drawn), the inhibition was inconclusive: 3.2%. In the case of `COc1ccc(C(CNC(=O)c2cccc(S(=O)(=O)Nc3cccc(C)c3)c2)N2CCOCC2)cc1` (stereo not drawn), the inhibition is reported as inconclusive: -1.2%.
